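Test compounds were applied to cells in 96-well plates for 48 hours at 5 doses. GI50 is the concentration that inhibits growth by half. TGI denotes the concentration required for complete inhibition of growth.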
System: NCI-H322M lung
Experiment: NCI anticancer screen, dose series, 48 h

Row | Structure (SMILES) | TGI [µM] | GI50 [µM]
1 | CCOC(=O)C1(C(=O)OCC)[C@H](c2ccccc2)C2=NO[C@@H]3CCC[C@H]1[C@H]23 | > 100 | –
2 | COc1ccc2c(c1)/C(=C\c1cccnc1)C(=O)N2 | 45.4 | 21.9
3 | CCCCC1CC(c2cccc([N+](=O)[O-])c2)=NO1 (stereo not drawn) | > 100 | –
4 | OCCCOC(c1ccccc1)(c1ccccc1)c1ccccc1 | > 100 | –
5 | O=C1C=C(NCCNC(=S)Nc2ccccc2)c2nccc3c2c1nc1ccccc13 | > 100 | 47
6 | COC(=O)C(C(=O)C(=O)Nc1ccc(C(F)(F)F)cc1[N+](=O)[O-])c1csc(-n2nc(-c3ccccc3)cc2-c2ccccc2)n1 (stereo not drawn) | > 100 | –
7 | N#Cc1nc(CCCCCN2C(=O)c3ccccc3C2=O)oc1N | > 100 | –
8 | C=CC1[C@H]2COC(C)(C)O[C@@H]2CC(=O)C1(C)C (stereo partly drawn) | > 100 | –
9 | CN1CCN(c2c(Cl)cc(Cl)c3[nH]c4ccccc4c(=O)c23)CC1 | 38.5 | –
10 | O=C1C=CC=CC2CC=C[C@@H](O)C12 (stereo partly drawn) | 74.1 | –
11 | CCOC(=O)C(=[N+]=[N-])C(=O)Nc1nn2nnnc2c2ccccc12 | > 100 | –
12 | CCCCCCCCCCCCCCN | > 100 | –
13 | Cc1ccc(S(=O)(=O)NNC(=O)c2cc(C)ccc2NC(=O)C23CC4CC(CC(C4)C2)C3)cc1 | 91.1 | –
14 | COc1ccccc1/C=C1\CCC(CCN(C)C)(C2=CCCC2)C1=O (stereo not drawn) | 36.2 | –
15 | COC(=O)C1C(O)CC(c2ccccn2)N(Cc2ccccc2)C1c1ccccn1 (stereo not drawn) | > 100 | –
16 | CC(C)=CCC[C@@H](C)C1=C(Nc2ccccc2Cl)C(O)=C(C)C(=O)C1=O | 26.1 | –
17 | CC(C)CNCC(O)COc1ccc(C(C)(C)c2ccc(OCC(O)CNCC(C)C)cc2)cc1 (stereo not drawn) | 17.9 | 5.17
18 | COc1ccc(-c2oc3c(OC)c(OC)c(OC)c(O)c3c(=O)c2OC)cc1OC | > 100 | –
19 | COc1ccc(N2Cc3cnc(Nc4ccccc4)nc3N([C@@H]3CC[C@@H](O)C3)C2=O)cc1 | > 25 | 8.35
20 | C/C=C\C(CC(=O)NCCc1cn(C(=O)OCc2ccccc2)c2ccccc12)CC(=O)OC (stereo not drawn) | > 100 | –
21 | Cc1ccc(C(C)(C)C[P+](C)(c2ccccc2)c2ccccc2)cc1 | > 100 | –
22 | CCOC(=O)C1=C(c2ccccc2)N(C)c2ccccc2S1 | > 100 | –
23 | CC1CCP(=O)(c2ccccc2)c2ccccc21 (stereo not drawn) | > 100 | –
24 | O=[N+]([O-])c1ccc(S[C@@H]2[C@H]3c4c(-c5ccccc5)[nH]c(-c5ccccc5)c4[C@@H]2C[C@H]3Cl)cc1 | > 100 | –

Row | Structure (SMILES) | TGI [µM] | GI50 [µM]
25 | COc1cc(/C=C\c2ccc(C)cc2)cc(OC)c1OC | > 100 | –
26 | CCOC(=O)c1c(CN2CCNCC2)nc2ccccc2c1-c1ccccc1 | 28.4 | –
27 | O=C1NC(=O)/C(=C/c2ccc(S(=O)(=O)N/N=C/c3ccc(Cl)cc3)cc2)N1 | > 100 | –
28 | Cc1ccc(C(=O)N/N=C(\N=Nc2cccc(Cl)c2)c2ccc(N(CCC#N)CCC#N)cc2C)cc1 | > 100 | –
29 | C=C(CCCCCCCCC)CC(=O)SCCNC(=O)CCNC(=O)C(O)C(C)(C)COP(=O)(O)OP(=O)(O)OCC1OC(n2cnc3c(N)ncnc32)C(O)C1OP(=O)(O)O (stereo not drawn) | > 100 | –
30 | O=C(/C=C/c1ccccc1)CC1OC(=O)c2ccccc21 (stereo not drawn) | > 100 | –
31 | O=C(c1ccc2ccccc2c1)c1c(C(F)(F)F)n([O-])c2cc(F)c(F)cc2[n+]1=O | 14.6 | 4.45
32 | O=C(c1ccc(Cl)cc1)c1ccc(OCCCCCCCCCCOc2ccc(C(=O)c3ccc(Cl)cc3)cc2)cc1 | > 100 | –
33 | O=C(CSCC(=O)N/N=C/c1cccs1)N/N=C/c1cccs1 | > 100 | –
34 | COC[C@@H](N=CN1CCc2cc(OC)c(OC)cc2[C@@H]1C)C(C)(C)C | > 100 | –
35 | CCCCc1c2c(nc3c1CCc1cc4cc5c(nc4nc1-3)-c1nc3c(c(CCCC)c1CC5)CCCC3)CCCC2 | > 100 | –
36 | COc1ccc(-c2cc(=O)c3c(C)cc(C)nc3[nH]2)cc1 | > 100 | –
37 | c1ccc(CCNCc2ccco2)nc1 | > 100 | –
38 | CC(C)C1(O)C(c2ccccc2)=C(c2ccccc2)C(c2ccccc2)=C1c1ccccc1 | > 100 | –
39 | O=C(O)[C@@H]1[C@H](C(=O)O)[C@H](C(=O)O)C[C@@H]1C(=O)O | > 100 | –
40 | Nc1nc2c(c(=O)[nH]1)NC(CO)CN2 (stereo not drawn) | > 100 | –
41 | CC(=O)/C(=C/n1c(=S)[nH]c2ccccc21)C(=O)Nc1ccccc1C | > 100 | –
42 | CC1(C)C(=O)C(C)(C)C1=NN | > 100 | –
43 | COc1ccc(-c2nc3sc(-c4ccc(Cl)cc4)cn3n2)cc1 | > 50 | 1.76
44 | O=C1C(c2c[nH]c3ccccc23)=C(c2c[nH]c3ccccc23)C(=O)N1O | > 25 | > 25
45 | O=C(NCc1cccc(C(F)(F)F)c1)c1cc2sccc2nc1C(F)(F)F | > 100 | –
46 | Nc1nc(-c2ccccc2N=NN2CCCC2)nc2ccccc12 | 6.09 | –
47 | Cc1cc(/C=C\c2ccc3ccccc3[n+]2C)c(O)c2ncccc12 | 3.04 | 0.382
48 | O=C([CH-]C(=O)c1ccccc1)c1ccccc1.O=C([CH-]C(=O)c1ccccc1)c1ccccc1.O=C([CH-]C(=O)c1ccccc1)c1ccccc1.[Nd+3].[OH3+] | 33.2 | 4.99

Row | Structure (SMILES) | TGI [µM] | GI50 [µM]
49 | NCCCOCC(=O)O | > 100 | –
50 | Nc1cccc2c1C(=O)c1cccc(N)c1C2=O | > 100 | –
51 | CCc1c(Cc2cccc3ccccc23)n2c(nc1=O)SCC2OCCO (stereo not drawn) | > 100 | –
52 | CN(C)CCNC(=O)c1ccc(NCCCN(C)CCCNc2ccc3c(=O)n(CCN(C)C)c(=O)n4c5ccccc5c(=O)c2c34)c2c(=O)c3ccccc3[nH]c12 | 0.377 | –
53 | CCCn1c(SC)nc(COC(=O)NC)c1COC(=O)NC | > 100 | –
54 | Nc1ncnc2c1ncn2C1CCC(COS(N)(=O)=O)C1 (stereo not drawn) | > 100 | –
55 | N=C1N(S(=O)(=O)c2ccccc2)[C@@H](Cc2ccccc2)[C@H](c2ccccc2)C1(c1ccccc1)c1ccccc1 | > 100 | –
56 | CC1OC2=N[C@@H]1C(=O)N[C@@H](C(C)C)C1=N[C@H](C(=O)N[C@@H](C(C)C)C3=N[C@H](C(=O)N[C@@H](C(C)C)C4=N[C@H](C(=O)N[C@H]2C(C)C)C(C)O4)C(C)O3)C(C)O1 (stereo partly drawn) | > 10 | –
57 | CN(C)c1ccc([O-])cc1.CN(C)c1ccc([O-])cc1.CN(C)c1ccc([O-])cc1.CN(C)c1ccc([O-])cc1.[Ti+4] | > 100 | > 100
58 | Cc1ccc(/C(=N\N=C(N)N)c2ccccc2)cc1 | 15.8 | 0.521
59 | O=C(/C=C/C12c3ccccc3C(c3ccccc31)C1C(=O)N(c3ccccc3)C(=O)C12)c1ccccc1 (stereo not drawn) | > 100 | 2.88
60 | Clc1ccc(N2N=C(c3cccc(Nc4ccncc4)c3)CC2c2ccc3c(c2)OCO3)cc1 (stereo not drawn) | 6.06 | 2.13
61 | Cc1nc2c3c(ncn2n1)Oc1c(c(-c2ccccc2)nn1-c1ccccc1)C3c1ccc(Cl)cc1 (stereo not drawn) | > 100 | –
62 | CCOC(=O)c1c(N2CCCC2)ncn(-c2ccccc2)c1=S | > 100 | –
63 | N#CC(C#N)=C1C(C#N)=C(N)NC12OCCO2 | > 100 | –
64 | COc1ccc2c(c1)C(N)=C(c1ccccc1)C2=O | > 100 | –
65 | CCn1c(C(=O)N(C2CC2)C2CC2)cc2c3c(ncn3C)c(Nc3cc(C)n(C)n3)nc21 | > 100 | > 52
66 | O=C(CCN1CCCC1)Nc1ccc2sc3ccccc3c(=O)c2n1 | > 31.6 | –
67 | COc1cc(/C=C/C(=O)c2c(=O)o[nH][n+]2-c2ccccc2)ccc1[O-] | 16.3 | –
68 | CCOC(=O)C1=C(C(=O)c2ccc(C)cc2)C(c2cccc([N+](=O)[O-])c2)C(C(=O)c2ccc(C)cc2)=C(C(=O)OCC)N1 | 47.2 | –
69 | COc1cccc(CC(C)NCC(O)c2ccc(O)c(O)c2)c1 (stereo not drawn) | > 100 | –
70 | COc1ccccc1/C=C/[N+](=O)[O-] | 5.87 | 2.35
71 | O=C(Nc1ccc(Cl)cc1Cl)C(=O)C(C(=O)c1ccc2ccccc2c1)C1OC(=O)c2ccccc21 (stereo not drawn) | 63.2 | –
72 | O=CC(O)C(O)C(O)C(O)C(=O)NCCCCCCCCCCCCNC(=O)C(O)C(O)C(O)C(O)C=O (stereo not drawn) | > 100 | –

Row | Structure (SMILES) | TGI [µM] | GI50 [µM]
73 | COc1ccc(N(C)C(=O)N(C)c2ccc([N+](=O)[O-])cc2)cc1 | > 100 | –
74 | CC(=O)O[C@@H]1C[C@@]23C[C@@]24CC[C@H](OC2OCC(O)C(O)C2O)C(C)(C)[C@@H]4CC=C3[C@]2(C)C[C@@H]3OC4(C[C@@H](C)[C@@H]3[C@@]12C)OC(O)[C@@]1(C)O[C@@H]41 (stereo partly drawn) | > 100 | –
75 | COC(=O)C1CCC(=O)N1C(=O)Cc1ccc(OC)cc1 (stereo not drawn) | > 100 | –
76 | C(=C\c1cccc(/C=C/c2ccccn2)n1)/c1ccccn1 | > 100 | –
77 | N/N=C1/C2CN3CCN(C2)CC1(c1ccc([N+](=O)[O-])cc1)C3 | > 100 | –
78 | CN1CCN(c2ccc(NC(=O)c3nc4ccc5[nH]ncc5c4c4c3CCCC4)cc2C(F)(F)F)CC1 | 3.06 | 1.15
79 | CC12N=NN(c3ccc([N+](=O)[O-])cc3)C1(O)c1ccccc1C2=O (stereo not drawn) | > 100 | –
80 | CC(=O)N[C@@H]1C(O)CN2C(=O)C(=O)O[C@H](C(O)CO)[C@@H]12 (stereo partly drawn) | > 100 | –
81 | O=C(Nc1cccc([N+](=O)[O-])c1)C(=O)C(C(=O)c1ccccc1-c1ccccc1)C1OC(=O)c2ccccc21 (stereo not drawn) | 56.1 | –
82 | O=[N+]([O-])c1c(Br)cc(Br)c2c1Nc1c(ccc(Cl)c1Cl)S2 | 26 | –
83 | O=C(Nc1cccs1)c1c(O)[nH]c(=S)[nH]c1=O | > 100 | –
84 | C/C(=N\O)c1cccc(Nc2cc(-n3ccnn3)c3ccccc3n2)c1 | 34 | 13
85 | Clc1ccc(Cc2nc3ccccc3nc2-c2cccc(Br)c2)cc1 | 32.3 | –
86 | CCCc1c(CC)c(=N)c2ccccc2n1C | > 100 | > 100
87 | CCO/C=C/C(C)C1(C(=O)OCC)CCCCC1=O (stereo not drawn) | > 100 | –
88 | CN(C)c1nc(N(C)C)nc(N(C)C23CC4CC(CC(C4)C2)C3)n1 | > 100 | –
89 | FC(F)(F)c1cc(-c2nnc3n2N=C(N2CCCC2)CS3)cc(C(F)(F)F)c1 | > 50 | > 50
90 | Oc1cc(O)c(Oc2cccc(O)c2O)c(O)c1 | > 100 | –
91 | C=C(CCC(C)C1CCC2C3=C(C(=O)CC21C)C1(C)CCC(=O)[C@@H](C)C1CC3=O)C(C)C(=O)O (stereo partly drawn) | > 100 | –
92 | CCN(CC)CCNc1ccc([N+](=O)[O-])c2sc3ccccc3c(=O)c12 | 2 | 0.409
93 | Cc1c(S(C)(=O)=O)c(-c2cc(F)cc(N3CCN(c4ccc(NS(=O)(=O)c5ccc(N[C@H](CCN6CCC(C(=O)OCCCP(=O)(O)O)CC6)CSc6ccccc6)c(S(=O)(=O)C(F)(F)F)c5)cc4)CC3)c2)c(-c2ccc(Cl)cc2)n1C(C)C | > 100 | > 100
94 | CCC(=O)O[C@H]1CC[C@H]2[C@@H]3CC[C@H]4CC(=O)[C@H](C)C[C@]4(C)[C@H]3CC[C@]12C | > 100 | > 100
95 | O=[N+]([O-])c1ccc(S(=O)Cc2ccccc2)c([N+](=O)[O-])c1 (stereo not drawn) | 31.1 | 16.4

— PubChem BioAssay (NCI)
